Cell count data for 28 molecules are collected here from the supplement of paper PMC4604168 (melanoma cell lines).

Some of the results follow. Most values come without repeats; read them as rough.
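Note: cell number obtained by counting DAPI-stained nuclei in high-throughput microscope images with image analysis software, screen run in 1,536-well plates.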

In the first assay the test system is G361. In words: cell count relative to DMSO control; melanoma cells; higher = more viable cells. As to conditions: library dose: low library concentration; 72 h.
With `CC[C@]1(O)C[C@H]2CN(CCc3c([nH]c4ccccc34)[C@@](C(=O)OC)(c3cc4c(cc3OC)N(C=O)[C@H]3[C@@](O)(C(=O)OC)[C@H](OC(C)=O)[C@]5(CC)C=CCN6CC[C@]43[C@@H]65)C2)C1` [vincristine] + NCC(=O)Nc1ccc(-n2nc(C(F)(F)F)cc2-c2ccc3c(ccc4ccccc43)c2)cc1 [OSU03012] (first compound 0.0001 µM, partner dose 1 µM), the cell count was 111%. `Cc1cc(Nc2cc(N3CCN(C)CC3)nc(Sc3ccc(NC(=O)C4CC4)cc3)n2)n[nH]1` [Tozasertib] + Oc1nc(-c2ccc(C(F)(F)F)cc2)nc2c1CSCC2 [XAV939] (first compound 0.006 µM, partner dose 2 µM) came in with a cell count of 62.2%. Same read-out and setting: as for `CC[C@]1(O)C[C@H]2CN(CCc3c([nH]c4ccccc34)[C@@](C(=O)OC)(c3cc4c(cc3OC)N(C=O)[C@H]3[C@@](O)(C(=O)OC)[C@H](OC(C)=O)[C@]5(CC)C=CCN6CC[C@]43[C@@H]65)C2)C1` [vincristine] + COC(=O)c1sccc1S(=O)(=O)Nc1ccc(Nc2ccccc2)cc1OC [GSK0660] (first compound 0.0001 µM, partner dose 1 µM), the figure is 98.5%; as for `Cc1cc(Nc2cc(N3CCN(C)CC3)nc(Sc3ccc(NC(=O)C4CC4)cc3)n2)n[nH]1` [Tozasertib] + N#Cc1c(O)c2c(-c3ccc(-c4ccccc4O)cc3)csc2[nH]c1=O [A769662] (first compound 0.006 µM, partner dose 2 µM), 89.9%.

A further assay concerns IPC-298. Described as above. As to conditions: library dose: low library concentration; 72 h.
`N#CC[C@H](C1CCCC1)n1cc(-c2ncnc3[nH]ccc23)cn1` [ruxolitinib] + CCc1ccc(CCOc2ccc(CC3SC(=O)NC3=O)cc2)nc1 [pioglitazone] (first compound 1 µM, partner dose 2 µM) showed a cell count of 105%. In turn, `N#CC[C@H](C1CCCC1)n1cc(-c2ncnc3[nH]ccc23)cn1` [ruxolitinib] + Cn1cc(/C=C2\C(=O)Nc3cccnc32)c2ccccc21 [GW441756] (first compound 1 µM, partner dose 0.4 µM) registered a cell count of 104%. Same read-out and setting: as for `CC[C@]1(O)C[C@H]2CN(CCc3c([nH]c4ccccc34)[C@@](C(=O)OC)(c3cc4c(cc3OC)N(C=O)[C@H]3[C@@](O)(C(=O)OC)[C@H](OC(C)=O)[C@]5(CC)C=CCN6CC[C@]43[C@@H]65)C2)C1` [vincristine] + COc1cc2c(Oc3ccc4[nH]c(C)cc4c3F)ncnc2cc1OCCCN1CCCC1 [cediranib] (first compound 0.0001 µM, partner dose 0.4 µM), the figure is 107%; as for `Cc1cc(Nc2cc(N3CCN(C)CC3)nc(Sc3ccc(NC(=O)C4CC4)cc3)n2)n[nH]1` [Tozasertib] + CC1(C)NC(=O)N(c2ccc([N+](=O)[O-])c(C(F)(F)F)c2)C1=O [nilutamide] (first compound 0.006 µM, partner dose 1 µM), 101%; as for `N#CC[C@H](C1CCCC1)n1cc(-c2ncnc3[nH]ccc23)cn1` [ruxolitinib] + COc1ccc(COc2ccc(Cc3cnc(N)nc3N)cc2OC)cc1 [GW2580] (first compound 1 µM, partner dose 1 µM), 102%. Regarding `N#CC[C@H](C1CCCC1)n1cc(-c2ncnc3[nH]ccc23)cn1` [ruxolitinib] + OCCn1cc(-c2cnc3nnn(Cc4ccc5ncccc5c4)c3n2)cn1 [PF04217903] (first compound 1 µM, partner dose 1 µM), the cell count turned out to be 100%. Consider `N#CC[C@H](C1CCCC1)n1cc(-c2ncnc3[nH]ccc23)cn1` [ruxolitinib] + NCC(=O)Nc1ccc(-n2nc(C(F)(F)F)cc2-c2ccc3c(ccc4ccccc43)c2)cc1 [OSU03012] (first compound 1 µM, partner dose 1 µM), for which the cell count worked out at 75.2%. `N#CC[C@H](C1CCCC1)n1cc(-c2ncnc3[nH]ccc23)cn1` [ruxolitinib] + O=C(O)c1ccc(-c2c[nH]c3ncc(-c4ccccc4)cc23)cc1C1CCCC1 [GSK650394] (first compound 1 µM, partner dose 0.16 µM) yielded a cell count of 106%. In the case of `N#CC[C@H](C1CCCC1)n1cc(-c2ncnc3[nH]ccc23)cn1` [ruxolitinib] + N#Cc1c(O)c2c(-c3ccc(-c4ccccc4O)cc3)csc2[nH]c1=O [A769662] (first compound 1 µM, partner dose 2 µM), the cell count amounted to 102%. On the same count and under the same terms, as for `N#CC[C@H](C1CCCC1)n1cc(-c2ncnc3[nH]ccc23)cn1` [ruxolitinib] + CN(C)S(=O)(=O)c1ccc2c(c1)/C(=C/c1cc3c([nH]1)CCCC3)C(=O)N2 [SU6656] (first compound 1 µM, partner dose 0.4 µM), the figure is 90.8%; as for `Cc1cc(Nc2cc(N3CCN(C)CC3)nc(Sc3ccc(NC(=O)C4CC4)cc3)n2)n[nH]1` [Tozasertib] + Cc1cc(N2CCOCC2)cc2[nH]c(-c3c(NC[C@@H](O)c4cccc(Cl)c4)cc[nH]c3=O)nc12 [BMS536924] (first compound 0.006 µM, partner dose 0.2 µM), 102%.

In turn, `Cc1cc(Nc2cc(N3CCN(C)CC3)nc(Sc3ccc(NC(=O)C4CC4)cc3)n2)n[nH]1` [Tozasertib] + COc1ccc2c(c1)CCC1C2CCC2(C)C(NCCCCCCN3C(=O)C=CC3=O)CCC12 [U73122] (first compound 0.006 µM, partner dose 0.4 µM) displayed a cell count of 102%. As to `CC[C@]1(O)C[C@H]2CN(CCc3c([nH]c4ccccc34)[C@@](C(=O)OC)(c3cc4c(cc3OC)N(C=O)[C@H]3[C@@](O)(C(=O)OC)[C@H](OC(C)=O)[C@]5(CC)C=CCN6CC[C@]43[C@@H]65)C2)C1` [vincristine] + O=C1NC(=O)/C(=C/c2ccc(-c3ccc(F)cc3O)o2)S1 [AS252424] (first compound 0.0001 µM, partner dose 1 µM), the cell count came to 99.5%. Same read-out and setting: as for `Cc1cc(Nc2cc(N3CCN(C)CC3)nc(Sc3ccc(NC(=O)C4CC4)cc3)n2)n[nH]1` [Tozasertib] + O=C(Nc1ccccc1)c1cc([N+](=O)[O-])ccc1Cl [GW9662] (first compound 0.006 µM, partner dose 2 µM), the figure is 103%; as for `N#CC[C@H](C1CCCC1)n1cc(-c2ncnc3[nH]ccc23)cn1` [ruxolitinib] + C=CCn1c(=O)c2cnc(Nc3ccc(N4CCN(C)CC4)cc3)nc2n1-c1cccc(C(C)(C)O)n1 [MK1775] (first compound 1 µM, partner dose 0.02 µM), 92.6%. Molecule `CC[C@]1(O)C[C@H]2CN(CCc3c([nH]c4ccccc34)[C@@](C(=O)OC)(c3cc4c(cc3OC)N(C=O)[C@H]3[C@@](O)(C(=O)OC)[C@H](OC(C)=O)[C@]5(CC)C=CCN6CC[C@]43[C@@H]65)C2)C1` [vincristine] + C[C@@H]1CCN(C(=O)CC#N)C[C@@H]1N(C)c1ncnc2[nH]ccc12 [CP690550] (first compound 0.0001 µM, partner dose 1 µM) displayed a cell count of 113%. Same read-out and setting: as for `N#CC[C@H](C1CCCC1)n1cc(-c2ncnc3[nH]ccc23)cn1` [ruxolitinib] + O=C1NC(=O)/C(=C/c2ccc(-c3ccc(F)cc3O)o2)S1 [AS252424] (first compound 1 µM, partner dose 1 µM), the figure is 94.8%. The same measure, in the same setting: as for `CC[C@]1(O)C[C@H]2CN(CCc3c([nH]c4ccccc34)[C@@](C(=O)OC)(c3cc4c(cc3OC)N(C=O)[C@H]3[C@@](O)(C(=O)OC)[C@H](OC(C)=O)[C@]5(CC)C=CCN6CC[C@]43[C@@H]65)C2)C1` [vincristine] + COc1ccc(-c2ccc3c(N4CCOCC4)nc(N4C[C@@H](C)O[C@@H](C)C4)nc3n2)cc1CO [KU0063794] (first compound 0.0001 µM, partner dose 0.02 µM), the figure is 99.3%; as for `N#CC[C@H](C1CCCC1)n1cc(-c2ncnc3[nH]ccc23)cn1` [ruxolitinib] + CCN(CC)CCCCNc1ncc2cc(-c3cc(OC)cc(OC)c3)c(NC(=O)NC(C)(C)C)nc2n1 [PD173074] (first compound 1 µM, partner dose 0.1 µM), 107%; as for `N#CC[C@H](C1CCCC1)n1cc(-c2ncnc3[nH]ccc23)cn1` [ruxolitinib] + O=C(Nc1cccc(Cl)c1)Nc1ncc(CCNc2ncnc3ccsc23)s1 [SNS314] (first compound 1 µM, partner dose 0.0008 µM), 106%. Still for that read-out and setting: as for `N#CC[C@H](C1CCCC1)n1cc(-c2ncnc3[nH]ccc23)cn1` [ruxolitinib] + CC(C)CCN1c2nc(Nc3cc(F)c(O)c(F)c3)ncc2N(C)C(=O)C1C [BID1870] (first compound 1 µM, partner dose 0.2 µM), the figure is 91.8%; as for `N#CC[C@H](C1CCCC1)n1cc(-c2ncnc3[nH]ccc23)cn1` [ruxolitinib] + c1cc(-c2cnn3cc(-c4ccc(OCCN5CCCCC5)cc4)cnc23)ccn1 [Dorsomorphin] (first compound 1 µM, partner dose 0.4 µM), 96.3%.

Regarding `Cc1cc(Nc2cc(N3CCN(C)CC3)nc(Sc3ccc(NC(=O)C4CC4)cc3)n2)n[nH]1` [Tozasertib] + Oc1cc(-c2nc(-c3ccccc3)[nH]c2-c2ccncc2)ccc1Cl [L779450] (first compound 0.006 µM, partner dose 0.2 µM), the cell count is 72.3%.

Consider `N#CC[C@H](C1CCCC1)n1cc(-c2ncnc3[nH]ccc23)cn1` [ruxolitinib] + CC1(C)NC(=O)N(c2ccc([N+](=O)[O-])c(C(F)(F)F)c2)C1=O [nilutamide] (first compound 1 µM, partner dose 1 µM), for which the cell count stood at 98.6%.
